For eleven molecules, log2 surviving fraction results are on record in the supplement of paper PMC8047034.

Molecules are shown by their SMILES. Structures can show the parent of a compound that is named as a salt. The list shows a part of the results. Many values rest on one well or one pass, so single values are uncertain.

This test concerns OVCAR4. The test is described as follows: log2 surviving fraction (library drug vs vehicle, or drug + carboplatin vs carboplatin alone; relative to plate median); ovarian cancer lines: OVCAR4 is platinum-sensitive and Ov4Carbo platinum-resistant; higher = more cell survival. Particulars: library drug concentration 10 µM; 7 days; carboplatin co-treatment 5 µM.
Turning to `O=C(CCCN1CC=C(n2c(=O)[nH]c3ccccc32)CC1)c1ccc(F)cc1` [Droperidol], the log2 surviving fraction was -1.36.
`CCOC(=O)C1=C(COCCN)NC(C)=C(C(=O)OC)C1c1ccccc1Cl` (stereo unspecified) [Amlodipine besylate (Norvasc)]: the log2 surviving fraction is -1.85.
On to `CC[N+](CC)(CC)CCOc1cccc(OCC[N+](CC)(CC)CC)c1OCC[N+](CC)(CC)CC` [Gallamine triethiodide (Flaxedil)], for which the log2 surviving fraction worked out at 0.423.
Take `CN(C)CCc1c[nH]c2ccc(Cn3cncn3)cc12` [Rizatriptan Benzoate (Maxalt)]: the log2 surviving fraction was -0.0536.
Next, `CN(C)C(=N)NC(=N)N` [Metformin hydrochloride (Glucophage)]: 0.276; `CC1(C)O[C@@H]2C[C@H]3[C@@H]4CCC5=CC(=O)C=C[C@]5(C)[C@H]4[C@@H](O)C[C@]3(C)[C@]2(C(=O)CO)O1` [Desonide]: -0.274.
`O[C@@H]1CO[C@H]2[C@@H]1OC[C@@H]2O` [Isosorbide]: the log2 surviving fraction was found to be 0.282.
Turning to `CC(=O)NS(=O)(=O)c1ccc(NC(=O)c2ccccc2C(=O)O)cc1` [Phthalylsulfacetamide], the log2 surviving fraction stood at 0.31.
The result for `Oc1ccc(OC2CCCCO2)cc1` (stereo unspecified) [Deoxyarbutin] reads -1.14; that for `O=P1(NCCCl)OCCCN1CCCl` (stereo unspecified) [Ifosfamide], 0.68.
The result for `CC[C@@H]1/C=C(\C)C[C@H](C)C[C@H](OC)[C@H]2O[C@@](O)(C(=O)C(=O)N3CCCC[C@H]3C(=O)O[C@H](/C(C)=C/[C@@H]3CC[C@H](Cl)[C@H](OC)C3)[C@H](C)[C@@H](O)CC1=O)[C@H](C)C[C@@H]2OC` [Pimecrolimus] reads -1.84.
